Measured values: PMC5892938
The list shows a part of the results. At the low end of the ranking the order means little.

Target: GST-SBP-SLBP (stem-loop binding protein) (UniProt Q14493)
Experiment: targeted RNA Bind-n-Seq;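 further: DESeq read counts versus GST-SBP nonspecific binding control pulldown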
Conditions: RBNS binding buffer: 25 mM Tris pH 7.5, 150 mM KCl, 3 mM MgCl2, 0.1% Tween, 0.5 mg/mL BSA, 1 mM DTT; 27 nM protein, 750 pM RNA pool; temperature not stated; high values mean tight binding

| Sequence | binding signal (log2 fold change) |
| --- | --- |
| GGUCACGUCUCAAUCAACUCAAACGAGGGGGGGAAAACCCCUUUACCCUCAUAUUCAACAGCUCGCAGUCAAG | -0.194 |
| GGUCACGUCUCAAUCAACUCUAUUCCAGGAGUUUUCUCCUGUAAAUUCAACAGCUCGCAGUCAAG | -0.16 |
| GGUCACGUCUCAAUCAACUCUAUUUCAGGAGUUUCCUCCUGUUUAUUCAACAGCUCGCAGUCAAG | 0.00445 |
| GGUCACGUCUCAAUCAACUCAACUUCAGGAGUUUGCUCCUGUAAAUUCAACAGCUCGCAGUCAAG | 0.155 |
| GGUCACGUCUCAAUCAACUCAUUCCCCAGGGAAAACCCUGGCAAUUUCAACAGCUCGCAGUCAAG | -0.101 |
| GGUCACGUCUCAAUCAACUCAAUCGAGGGGGGGAAAACCCCUUUACCCUCACAUUCAACAGCUCGCAGUCAAG | -0.253 |
| GGUCACGUCUCAAUCAACUCUCAAGAGGGGGGGAAAACCCCUUUGCCCUCAAUUUCAACAGCUCGCAGUCAAG | -0.0814 |
| GGUCACGUCUCAAUCAACUCAAUUCCCAGGGAAAUCCCUGGUAUAUUCAACAGCUCGCAGUCAAG | -0.283 |
| GGUCACGUCUCAAUCAACUCUAGUCCAGGAGUUUUCUCCUGUUUUUUCAACAGCUCGCAGUCAAG | -0.217 |
| GGUCACGUCUCAAUCAACUCAUUCCCCAGGGAAAACCCUGGUAAUCUCAACAGCUCGCAGUCAAG | 0.22 |
| GGUCACGUCUCAAUCAACUCAUUUCCAGGAGUUUUCUCCUGCUAACUCAACAGCUCGCAGUCAAG | 0.0368 |
| GGUCACGUCUCAAUCAACUCUUCUUCCAGGGAAAUCCCUGGCUUAUUCAACAGCUCGCAGUCAAG | -0.0924 |
| GGUCACGUCUCAAUCAACUCGUUUUCAGGAGUUUCCUCCUGCAUUCUCAACAGCUCGCAGUCAAG | 0.204 |
| GGUCACGUCUCAAUCAACUCAUUCUCCAGGGAAAGCCCUGGCUUUUUCAACAGCUCGCAGUCAAG | 0.0656 |
| GGUCACGUCUCAAUCAACUCUAUAGAGGGGGGGAAAACCCCUUUACCCUCAAACUCAACAGCUCGCAGUCAAG | 0.039 |
| GGUCACGUCUCAAUCAACUCAAUCUCCAGGGAAAGCCCUGGCUAACUCAACAGCUCGCAGUCAAG | 0.405 |
| GGUCACGUCUCAAUCAACUCUUUCGAGGGGGGGAAAACCCCUUUGCCCUCACUUUCAACAGCUCGCAGUCAAG | -0.243 |
| GGUCACGUCUCAAUCAACUCAUCGUCAGGAGUUUCCUCCUGCUAAUUCAACAGCUCGCAGUCAAG | -0.0608 |
| GGUCACGUCUCAAUCAACUCAACUCCCAGGGAAAGCCCUGGCUAAUUCAACAGCUCGCAGUCAAG | 0.0142 |
| GGUCACGUCUCAAUCAACUCAUCUUCAGGAGUUUGCUCCUGCAUUUUCAACAGCUCGCAGUCAAG | -0.065 |
| GGUCACGUCUCAAUCAACUCAACUCCAGGAGUUUUCUCCUGCAAUGUCAACAGCUCGCAGUCAAG | -0.102 |
| GGUCACGUCUCAAUCAACUCUUCGCCAGGAGUUUUCUCCUGUAAACUCAACAGCUCGCAGUCAAG | 0.124 |
| GGUCACGUCUCAAUCAACUCGUCUUCAGGAGUUUUCUCCUGUUUAUUCAACAGCUCGCAGUCAAG | -0.14 |
| GGUCACGUCUCAAUCAACUCUUUUUCCAGGGAAACCCCUGGCAAUCUCAACAGCUCGCAGUCAAG | 0.214 |

| Sequence | binding signal (log2 fold change) |
| --- | --- |
| GGUCACGUCUCAAUCAACUCAUUCCCCAGGGAAAGCCCUGGUAUUUUCAACAGCUCGCAGUCAAG | 0.224 |
| GGUCACGUCUCAAUCAACUCAAUUCCAGGAGUUUACUCCUGCAUUCUCAACAGCUCGCAGUCAAG | 0.0222 |
| GGUCACGUCUCAAUCAACUCUACUUCAGGAGUUUUCUCCUGCUUAUUCAACAGCUCGCAGUCAAG | 0.0591 |
| GGUCACGUCUCAAUCAACUCUUCGCCAGGAGUUUUCUCCUGCUUUCUCAACAGCUCGCAGUCAAG | -0.0133 |
| GGUCACGUCUCAAUCAACUCUUUCUCCAGGGAAAGCCCUGGCAUUCUCAACAGCUCGCAGUCAAG | 0.179 |
| GGUCACGUCUCAAUCAACUCAUUCUCCAGGGAAAACCCUGGUUAACUCAACAGCUCGCAGUCAAG | 0.0621 |
| GGUCACGUCUCAAUCAACUCAAUAGAGGGGGGGAAAACCCCUUUACCCUCAGAAUCAACAGCUCGCAGUCAAG | -0.492 |
| GGUCACGUCUCAAUCAACUCAAUUUCAGGAGUUUACUCCUGUUUUCUCAACAGCUCGCAGUCAAG | -0.0153 |
| GGUCACGUCUCAAUCAACUCUAUCUCCAGGGAAACCCCUGGUUUACUCAACAGCUCGCAGUCAAG | -0.013 |
| GGUCACGUCUCAAUCAACUCAUCGCCCAGGGAAAUCCCUGGUUUUUUCAACAGCUCGCAGUCAAG | 0.15 |
| GGUCACGUCUCAAUCAACUCUCUAGAGGGGGGGAAAACCCCUUUACCCUCGUUAUCAACAGCUCGCAGUCAAG | -0.142 |
| GGUCACGUCUCAAUCAACUCAUCUUCAGGAGUUUACUCCUGCUAACUCAACAGCUCGCAGUCAAG | 0.134 |
| GGUCACGUCUCAAUCAACUCUUUUCCCAGGGAAACCCCUGGUAUAUUCAACAGCUCGCAGUCAAG | 0.104 |
| GGUCACGUCUCAAUCAACUCAUCGUCAGGAGUUUCCUCCUGUAAACUCAACAGCUCGCAGUCAAG | 0.105 |
| GGUCACGUCUCAAUCAACUCAGUUUCAGGAGUUUACUCCUGUAUAUUCAACAGCUCGCAGUCAAG | 0.115 |
| GGUCACGUCUCAAUCAACUCUUUCUCAGGAGUUUUCUCCUGUUAUCUCAACAGCUCGCAGUCAAG | -0.0521 |
| GGUCACGUCUCAAUCAACUCAAUCCCCAGGGAAAACCCUGGCUAACUCAACAGCUCGCAGUCAAG | -0.246 |
| GGUCACGUCUCAAUCAACUCAGUCCCAGGAGUUUGCUCCUGUAUUUUCAACAGCUCGCAGUCAAG | 0.127 |
| GGUCACGUCUCAAUCAACUCUUCUUCCAGGGAAAACCCUGGUAAUUUCAACAGCUCGCAGUCAAG | -0.174 |
| GGUCACGUCUCAAUCAACUCUCAAGAGGGGGGGAAAACCCCUUUACCCUCGUUUUCAACAGCUCGCAGUCAAG | -0.248 |
| GGUCACGUCUCAAUCAACUCCCUCGAGGGGGGGAAAACCCCUUUACCCUCAUCGUCAACAGCUCGCAGUCAAG | 0.532 |
| GGUCACGUCUCAAUCAACUCAAUUCCCAGGGAAAACCCUGGUAUUCUCAACAGCUCGCAGUCAAG | -0.205 |
| GGUCACGUCUCAAUCAACUCUCCAGAGGGGGGGAAAACCCCUUUACCCUCCUUAUCAACAGCUCGCAGUCAAG | -0.322 |
